# This is one part of the list.
# System: S. aureus RN4220
# Experiment: growth inhibition call (relative growth <= 0.2)
# Settings: 50 µM
row,SMILES,growth inhibition call
1,O=C(C[C@H]1C[C@H]2c3cc(NS(=O)(=O)c4ccc(F)cc4)ccc3O[C@H]2[C@@H](CO)O1)N1CCOCC1,inactive
2,C[C@@H]1CN([C@@H](C)CO)C(=O)c2cc(C#C[C@@H](C)O)cnc2O[C@@H]1CN(C)C(=O)Nc1ccc(C(F)(F)F)cc1,inactive
3,C[C@H](CO)N1C[C@H](C)[C@@H](CN(C)C(=O)c2ccncc2)OCCCC[C@H](C)Oc2ccc(NS(=O)(=O)c3ccc(Cl)cc3)cc2C1=O,inactive
4,C[C@H]1CN([C@@H](C)CO)C(=O)CCCn2cc(nn2)CO[C@@H]1CN(C)S(=O)(=O)c1ccc(Oc2ccccc2)nc1,inactive
5,Cc1ccc(C(=O)N2CCN(c3ccc(NC(=O)COc4c(C)cc(C)cc4Br)cc3)CC2)cc1,inactive
6,COc1ccc(-c2cnc3c(c2)C(=O)N([C@H](C)CO)C[C@H](C)[C@H](CN(C)C(=O)Cc2ccncc2)O3)cc1,inactive
7,COc1ccc(Cn2cc[nH]c(=O)c2=O)cc1,inactive
8,C[C@@H]1CN([C@@H](C)CO)C(=O)c2cc(NS(C)(=O)=O)ccc2O[C@@H](C)CCCCO[C@@H]1CN(C)S(=O)(=O)c1cccs1,inactive
9,C[C@@H]1CN([C@H](C)CO)C(=O)Cc2cc(NC(=O)Cn3cnnn3)ccc2O[C@H]1CN(C)Cc1ccc(Cl)c(Cl)c1,inactive
10,O=C(OC[C@H]1O[C@@H](OC(=O)c2cc(O)c(O)c(O)c2)[C@H](O)[C@@H](OC(=O)c2cc(O)c(O)c(O)c2)[C@@H]1O)c1cc(O)c(O)c(O)c1,inactive
11,C[C@@H]1CN([C@@H](C)CO)C(=O)c2cc(NC(=O)Cc3ccccc3)ccc2O[C@@H]1CN(C)Cc1ccc(-c2ccccc2)cc1,inactive
12,COC(=O)C1=C(C)NC(C)=C(C(=O)OCC(C)C)C1c1ccccc1[N+](=O)[O-] (stereo not given),inactive
13,Cc1noc(C)c1S(=O)(=O)N(C)C[C@H]1Oc2ccc(NS(=O)(=O)c3ccc(F)cc3)cc2CC(=O)N([C@H](C)CO)C[C@H]1C,inactive
14,C[C@@H]1CN([C@@H](C)CO)C(=O)Cc2cc(NC(=O)Nc3ccc(F)cc3)ccc2O[C@@H]1CN(C)Cc1ccc(Cl)c(Cl)c1,inactive
15,CC(C)NC(=O)N(C)C[C@H]1Oc2ccc(NS(=O)(=O)c3ccc(Cl)cc3)cc2C(=O)N([C@@H](C)CO)C[C@H]1C,inactive
16,C[C@@H]1CN([C@H](C)CO)S(=O)(=O)c2ccc(-c3cncnc3)cc2O[C@@H]1CN(C)C(=O)C1CCCCC1,inactive
17,NCCCCCCNC(=O)[C@@H]1C[C@@H]2C(=O)N[C@@H](CCCCN)C(=O)N2[C@@H]1c1cccc(OCCO)c1,inactive
18,CC(C)CNC(=O)[C@@]1(C)c2ccccc2C(=O)N(Cc2cc(C(F)(F)F)cc(C(F)(F)F)c2)[C@H]1c1ccc(CO)cc1,inactive
19,Cc1ccc(S(=O)(=O)Nc2ccc3c(c2)C(=O)N([C@@H](C)CO)C[C@@H](C)[C@@H](CN(C)C(=O)Cc2ccccc2)OCCCC[C@H](C)O3)cc1,inactive
20,OC[C@H]1O[C@H]2O[C@@H]3[C@@H](O)[C@H](O)[C@H](O[C@@H]4[C@@H](O)[C@H](O)[C@H](O[C@@H]5[C@@H](O)[C@H](O)[C@H](O[C@@H]6[C@@H](O)[C@H](O)[C@H](O[C@@H]7[C@@H](O)[C@H](O)[C@H](O[C@@H]8[C@@H](O)[C@H](O)[C@H](O[C@@H]1[C@@H](O)[C@@H]2O)O[C@@H]8CO)O[C@@H]7CO)O[C@@H]6CO)O[C@@H]5CO)O[C@@H]4CO)O[C@@H]3CO,inactive

row,SMILES,growth inhibition call
1,C[C@@H]1CN([C@@H](C)CO)C(=O)c2cccc(NS(C)(=O)=O)c2O[C@@H]1CN(C)Cc1ccc2c(c1)OCO2,inactive
2,COc1cccc(NC(=O)N[C@@H]2CC[C@H](CC(=O)N3CCOCC3)O[C@H]2CO)c1,inactive
3,COCCNC(=O)C[C@@H]1CC[C@H]2[C@H](COc3ccc(NC(=O)Nc4cccc(F)c4)cc3C(=O)N2C)O1,inactive
4,Cc1ccc(S(=O)(=O)Nc2ccc3c(c2)C(=O)N([C@@H](C)CO)C[C@@H](C)[C@@H](CN(C)S(=O)(=O)c2ccc(Cl)cc2)OCCCC[C@H](C)O3)cc1,inactive
5,C[C@@H]1CCCCO[C@H](CN(C)C(=O)Nc2ccccc2)[C@@H](C)CN([C@H](C)CO)C(=O)c2cc(NC(=O)Nc3ccc(F)cc3)ccc2O1,inactive
6,C[C@H](NC(=O)N(C)C[C@H]1OCc2ccccc2-c2ccccc2C(=O)N([C@H](C)CO)C[C@H]1C)c1ccccc1,inactive
7,O=C(O)CSCC(=O)NC1CCSC1=O (stereo not given),inactive
8,C[C@@H]1CCCCO[C@H](CN(C)C)[C@H](C)CN([C@H](C)CO)C(=O)c2cc(NC(=O)Nc3cccc4ccccc34)ccc2O1,inactive
9,CC(=O)SC1CC2=CC(=O)CCC2(C)C2CCC3(C)C(CCC34CCC(=O)O4)C12 (stereo not given),inactive
10,CN(Cc1ccccc1)C[C@H]1C[C@H](c2ccccc2)O[C@H](c2ccc(NC(=O)CCCCCCC(=O)O)cc2)O1,inactive
11,C[C@@H]1CCCCO[C@H](CN(C)Cc2ccc(Cl)c(Cl)c2)[C@@H](C)CN([C@@H](C)CO)C(=O)c2cc(NS(=O)(=O)c3ccc(F)cc3)ccc2O1,inactive
12,C[C@@H]1CN([C@@H](C)CO)C(=O)c2cc(NS(=O)(=O)c3cccs3)ccc2O[C@@H](C)CCCCO[C@H]1CN(C)CC1CCCCC1,inactive
13,Cc1c2oc3c(C)ccc(C(=O)N[C@@H]4C(=O)N[C@@H](C(C)C)C(=O)N5CCC[C@H]5C(=O)N(C)CC(=O)N(C)[C@@H](C(C)C)C(=O)O[C@@H]4C)c3nc-2c(C(=O)N[C@@H]2C(=O)N[C@@H](C(C)C)C(=O)N3CCC[C@H]3C(=O)N(C)CC(=O)N(C)[C@@H](C(C)C)C(=O)O[C@@H]2C)c(N)c1=O,active
14,CCCCCCCCCCCCCCCc1cccc(OCC)c1C(=O)Nc1ccc(Cl)c(C(F)(F)F)c1,inactive
15,CCN(CC)CCOC(=O)c1ccc(N)cc1.Cl,inactive
16,C[C@H](CO)N1C[C@H](C)[C@@H](CN(C)C)Oc2ccc(NS(C)(=O)=O)cc2CC1=O,inactive
17,O=C(CN1CCOCC1)N[C@@H]1CC[C@@H](CCNC(=O)C2CCCCC2)O[C@H]1CO,inactive
18,Cc1ccc(S(=O)(=O)Oc2ccc(/N=N/c3ccc(-c4ccc(/N=N/c5c(O)ccc6cc(S(=O)(=O)O)cc(S(=O)(=O)O)c56)c(C)c4)cc3C)cc2)cc1,inactive
19,C[C@H](CO)N1C[C@H](C)[C@H](CN(C)Cc2ccccc2)Oc2c(NC(=O)CCCCCC(=O)Nc3ccccc3N)cccc2C1=O,inactive
20,CCc1nc2ccc(C(=O)Nc3ccc(OC)c(OC)c3)cn2c1N(CC)Cc1cccc(Br)c1,inactive

# From the antibiotic and cytotoxicity screens of Wong et al. (2023)
